ChEMBL document CHEMBL4834469, “Balancing Properties with Carboxylates: A Lead Optimization Campaign for Selective and Orally Active CDK9 Inhibitors” (ACS Med Chem Lett, 2021)

What was measured:
[1] = in vivo; conditions: Sprague-Dawley, rat, iv, 10 mg/kg
[2] = in vitro; conditions: human, plasma
[3] = in vivo; conditions: rat, iv, 1 mg/kg
[4] = tested on: NCI-H929; test: cells; conditions: Homo sapiens, NCI-H929, 24 h
[5] = in vivo; conditions: rat, po, 1 mg/kg
[6] = in vivo; conditions: rat, po, 1 mg/kg; remark: listed apart in the source
[7] = in vivo; conditions: rat, iv, 1 mg/kg; remark: listed apart in the source
[8] = in vitro; conditions: rat, plasma

Row | Structure (SMILES) | concentration at 0.5 h [1] | fraction unbound [2] | Vd [3] | IC50 [4] | AUC [5] | bioavailability [6] | half-life [7] | fraction unbound [8]
1 | COc1ccc(F)cc1-c1ccnc2[nH]c(C3=CCNCC3)cc12 | 600 ng/mL |  |  |  |  |  |  | 
2 | COc1ccc(F)cc1-c1ccnc2[nH]c(C3=CCN(C(=O)CO)CC3)cc12 | 1900 ng/mL | 0.027 | 3.1 L/kg | 130 nM | 56 ng·h/mL | 20% | 43.8 min | 0.046
3 | COc1ccc(F)cc1-c1ccnc2[nH]c(C3=CCN(S(C)(=O)=O)CC3)cc12 | 2500 ng/mL |  | 2.9 L/kg |  | 99 ng·h/mL | 28% | 58.2 min | 0.06
4 | CNC(=O)N1CC=C(c2cc3c(-c4cc(F)ccc4OC)ccnc3[nH]2)CC1 | 3300 ng/mL | 0.008 | 5.4 L/kg |  |  | 85% | 60 min | 0.01
5 | COc1ccc(F)cc1-c1ccnc2[nH]c(C3=CCN(CC(=O)O)CC3)cc12 | 6100 ng/mL | 0.034 | 1 L/kg | 240 nM |  | 0% | 34.8 min | 0.106
